# According to the supplement of paper PMC12217912:
# The other results are listed elsewhere or left out. The full chains were built here from the parent and the listed change. Values near 0.05 are background.
# B1: TEV protease; numbered along this chain (parent)
# chain: MGESLFKGPRDYNPISSSICHLTNESDGHTTSLYGIGFGPFIITNKHLFRRNNGTLVVQSLHGVFKVKDTTTLQQHLVDGRDMIIIRMPKDFPPFPQKLKFREPQREERICLVTTNFQTKSMSSMVSDTSCTFPSGDGIFWKHWIQTKDGQCGSPLVSTRDGFIVGIHSASNFTNTNNYFTSVPKNFMELLTNQEAQQWVSGWRLNADSVLWGGHKVFMVKPEEPFQPVKEATQL
# Variants of: B1
# Assay: raw area under fraction-flipped curve 0-4 h after induction (AUC4h, not background-subtracted), DNA-recorder readout of cleavage of the substrate (dimensionless); higher = more cleavage of the substrate by the protease variant
# Settings: temperature: 34 °C; time window: 0-4 h after rhamnose induction
# Protocol: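 In vivo DNA recorder in E. coli TOP10(DE3) ΔrhaA at 34 °C. Each TEVp single-site mutant (parent TEVp 0) is paired with a single-site variant of the 7-mer TEVs (canonical ENLYFQ|S). The substrate sits between flexible linkers in a Bxb1-sfGFP-TEVs-SsrA fusion, so cleavage stabilises Bxb1 and speeds flipping of a recombination array, read by NGS. The value is the raw area under the fraction-flipped curve over 0-4 h after rhamnose induction (AUC4h), with ≥20 reads per time point. It is not background-subtracted; inactive controls average about 0.047.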
# 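Further: Bxb1 expression induced with 0.2% (w/v) L-rhamnose at OD600 near 0.5, cultures sampled hourly, flipped fraction per protease–substrate barcode pair counted by paired-end Illumina sequencing.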
Variant,area with substrate ENLAFQS,area with substrate ENLCFQS,area with substrate ENLDFQS,area with substrate ENLEFQS,area with substrate ENLFFQS,area with substrate ENLGFQS,area with substrate ENLHFQS,area with substrate ENLIFQS,area with substrate ENLKFQS,area with substrate ENLLFQS,area with substrate ENLNFQS,area with substrate ENLPFQS,area with substrate ENLRFQS,area with substrate ENLSFQS,area with substrate ENLTFQS,area with substrate ENLVFQS,area with substrate ENLMFQS,area with substrate ENLQFQS,area with substrate ENLWFQS
MGESLFKGPRDYNPISSSICHLTNESDGHTTSLYGIRFGPFIITNKHLFRRNNGTLVVQSLHGVFKVKDTTTLQQHLVDGRDMIIIRMPKDFPPFPQKLKFREPQREERICLVTTNFQTKSMSSMVSDTSCTFPSGDGIFWKHWIQTKDGQCGSPLVSTRDGFIVGIHSASNFTNTNNYFTSVPKNFMELLTNQEAQQWVSGWRLNADSVLWGGHKVFMVKPEEPFQPVKEATQL [G37R],0.0467,0.0462,0.0599,0.0615,0.0585,0.0476,0.0617,0.0833,0.069,0.0618,0.0596,0.0654,0.063,0.0562,0.0722,0.0618,–,–,–
MGESLFKGPRDYNPISSSICHLTNESDGHTTSLYGIGFGPFIITNKHLFRRNNGTLVVQSLHGVFKVKDTTTLQQHLVDGRDMIIIRMPKDFPPFPQKLKFREPQREERICLVTTNFQTKSMSSMVSDTSCTFPSGDGIFWKHWIQTKDGQCGSPLVSTRDGFIVGIHSASNFTNTNNYFTSVPKNFMELLTNQEAQQWVSGWRLNADSVLWGGHKVFMVKPEPPFQPVKEATQL [E224P],0.0637,–,0.0645,0.0469,0.082,0.0757,0.0698,–,0.0782,–,0.0583,0.0616,0.0636,0.0489,0.0643,0.0853,0.0669,0.0728,0.0699
MGESLFKGPRDYNPISSSICHLTNESDGHTTSLYGIGFGPFIITNKHLFRRNNGTLVVQSLHGVFKVKDTTTLQQHLVDGRDMIIIRMPKDFPPFPQKLKFREPQREERICLVTTNFQTKSMSSMVSDTSCTFPSGDGIFWKHWIQTKDGQCGSPLVSTRDGFIVSIHSASNFTNTNNYFTSVPKNFMELLTNQEAQQWVSGWRLNADSVLWGGHKVFMVKPEEPFQPVKEATQL [G166S],0.0498,0.0383,–,0.0548,0.0651,–,0.0533,–,0.0569,0.0569,0.0553,0.0559,–,0.0411,–,–,0.0499,0.0495,0.0459
MGESLFKGPRDYNPISSSICHLTNESDGHTTSLYGIGFGPFIITNKHLFRRSNGTLVVQSLHGVFKVKDTTTLQQHLVDGRDMIIIRMPKDFPPFPQKLKFREPQREERICLVTTNFQTKSMSSMVSDTSCTFPSGDGIFWKHWIQTKDGQCGSPLVSTRDGFIVGIHSASNFTNTNNYFTSVPKNFMELLTNQEAQQWVSGWRLNADSVLWGGHKVFMVKPEEPFQPVKEATQL [N52S],0.0626,–,–,0.0678,0.081,–,0.0556,0.0639,0.0657,–,0.0622,0.0413,0.0813,0.0675,0.066,–,–,–,–
MGESLFKGPRDYNPISSSICHLTNESDGHTTSLYGIGFGPFIITNKHLFRRNNGTLVVQSLHGVFKVKDTTTLQQHLVDGRDMIIIRMPKDFPPFPQKLKFREPQREERICLVTTNFQTKSMSSMVSDTSCTFPSGDGIFWKHWIQTKDGQCGSPLVSTRDGFIVGIHSASNFTNTNNYFTSVPKNFMELLTNQEAQQWVSGWRLNADSVLWGGHKVFMVKPEEPYQPVKEATQL [F226Y],0.0755,0.0729,0.0618,0.0514,0.0938,0.0548,–,0.0862,0.0781,–,0.075,0.0376,–,0.0579,–,–,–,0.0667,0.0584
MGESLFKGPRDYNPISSSICHLTNESDGHTTSLYGIGFGPFIITNKHLFRRNNGTLVVQSNHGVFKVKDTTTLQQHLVDGRDMIIIRMPKDFPPFPQKLKFREPQREERICLVTTNFQTKSMSSMVSDTSCTFPSGDGIFWKHWIQTKDGQCGSPLVSTRDGFIVGIHSASNFTNTNNYFTSVPKNFMELLTNQEAQQWVSGWRLNADSVLWGGHKVFMVKPEEPFQPVKEATQL [L61N],0.075,–,0.0596,–,0.0856,–,–,–,0.0687,0.0779,0.0552,0.058,–,0.065,0.0729,–,0.0871,0.0771,–
MGESLFKGPRDYNPISSSICHLTNESDGHTTSLYGIGFGPFIITNKHLFRRNNGTLVVQSLHGVFKVKDTTTLQQHLVDGRDMIIIRMPKDFPPFPQKLKFREPQRENRICLVTTNFQTKSMSSMVSDTSCTFPSGDGIFWKHWIQTKDGQCGSPLVSTRDGFIVGIHSASNFTNTNNYFTSVPKNFMELLTNQEAQQWVSGWRLNADSVLWGGHKVFMVKPEEPFQPVKEATQL [E108N],0.0586,0.0575,0.0518,0.0689,0.0772,0.0657,0.0532,0.0596,0.0513,0.0481,0.0499,0.0611,0.104,0.0573,–,0.0597,–,0.0327,–
MGESLFKGPRDYNPISSSICHLTNESDGHTTSLYGIGFGPFIVTNKHLFRRNNGTLVVQSLHGVFKVKDTTTLQQHLVDGRDMIIIRMPKDFPPFPQKLKFREPQREERICLVTTNFQTKSMSSMVSDTSCTFPSGDGIFWKHWIQTKDGQCGSPLVSTRDGFIVGIHSASNFTNTNNYFTSVPKNFMELLTNQEAQQWVSGWRLNADSVLWGGHKVFMVKPEEPFQPVKEATQL [I43V],0.0963,0.0788,0.0523,–,0.0868,0.063,0.0648,–,0.0723,–,0.0544,0.0565,0.0969,0.0655,–,0.0952,0.0674,–,–
MGESLFKGPRDYNPISSSICHLTNESDGHTTSLYGIGFGPFIITNKHLFRRNNGTLVVQSLHGVFKVKDTTTLQQHLVDGRDMIIIRMPKDFPPFPQKLKFREPQIEERICLVTTNFQTKSMSSMVSDTSCTFPSGDGIFWKHWIQTKDGQCGSPLVSTRDGFIVGIHSASNFTNTNNYFTSVPKNFMELLTNQEAQQWVSGWRLNADSVLWGGHKVFMVKPEEPFQPVKEATQL [R106I],0.0636,–,–,0.0585,0.0642,0.0715,–,–,0.0695,–,0.071,–,–,–,0.0702,0.0585,–,0.0674,–
